From PubChem BioAssay AID602179 (National Center for Advancing Translational Sciences (NCATS), 2012)
Screen size: about 390,000 compounds; about 360 (0.092%) were called active. Inconclusive results, whose numbers are uncertain, are shown with a selection of clear calls. Calls follow the shape of the dose curve; as a rule, active = well fitted inhibition curve with a large enough effect; inconclusive = small, poorly fitted or top-dose-only effect; inactive = no such curve, though single readings can be large or run the other way. Potencies beside an inconclusive call are fits to weak or partial responses and may not hold up.
Also: nearly all actives have a fitted effect of over 65% in size.
Potency is read from the fitted curve at half-maximal effect; tags tell the direction and shape of the fitted curve.

What follows are compounds tested against Isocitrate dehydrogenase [NADP] cytoplasmic (Homo sapiens) (UniProt O75874) (assay: qHTS for Inhibitors of mutant isocitrate dehydrogenase 1 (IDH1): qHTS). Conditions: IDH1-R132H enzyme, NADPH consumption, diaphorase/resazurin fluorescence; series mostly up to 76.6 µM.
Method in brief: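 IDH1-R132H (0.5 ug/mL) preincubated 30 min with compound, then NADPH (0.016 mM) and alpha-KG (2 mM) added; 80 min at RT, pH 7.5. Remaining NADPH coupled via diaphorase/resazurin to fluorescence (540/590 nm); concentration-response curves normalized to no-enzyme control.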
For `Cc1nc2c(-c3ccc(F)cc3)c(C)nn2c(C)c1CCC(=O)Nc1ccccc1`, the Potency was inconclusive: 46.5 µM [inhibitor, partial curve].
In the case of `Cc1ccc(-c2nn(-c3ccccc3)cc2/C=C2\SC(=S)N(CCCCCC(=O)O)C2=O)o1`, the Potency is reported as inconclusive: 52.1 µM [inhibitor, partial curve].
For `COc1cc2c(-c3ccc4c(c3)OCO4)c(-c3ccsc3)oc(=O)c2cc1OC`, the Potency was active: 10 µM.
In the case of `CCN(C(=O)COC(=O)c1c(NC(C)=O)sc(C)c1C)c1c(N)n(Cc2ccccc2)c(=O)[nH]c1=O`, the Potency is reported as inconclusive: 58.5 µM [inhibitor, single point].
With `CCN(CC)C(=O)CSc1nc(C)cc(-c2cccs2)c1C#N` the Potency was “inactive”.
For `CCCCn1cc2c(c1-c1ccccc1Br)c(=O)n(C)c(=O)n2C`, the Potency was inconclusive: 50.1 µM [inhibitor, single point].
In the case of `N/C(=N\OC(=O)c1ccc2ccccc2c1)c1ccccn1`, the Potency is reported as “inactive”.
With `Cc1ccc(C)c(Cn2nnc3c(=O)[nH]c(C(=O)Nc4ccc(F)cc4)nc32)c1` the Potency was inconclusive: 58.5 µM [inhibitor, single point].
For `S=c1[nH]nc(-c2cc(-c3ccccc3)n[nH]2)n1/N=C/c1ccccc1`, the Potency was inconclusive: 58.5 µM [inhibitor, single point].
For `CCOc1ccc(NC(=O)CCC(=O)c2ccc(Br)cc2)cc1`, the Potency was “inactive”.
In the case of `CC(=O)c1c(C)nn(CC(O)COc2ccc3c(c2)CCC3)c1C` (stereo not given), the Potency is reported as “inactive”.
For `Cc1ccccc1-n1nc(C(=O)c2cccs2)cc(-c2nc3ccccc3[nH]2)c1=N`, the Potency was “inactive”.
`Cc1ccc(-c2nc3c(c(=O)c4ccccc4n3C)c(=O)n2Cc2ccco2)cc1` was tested, and the Potency was inconclusive: 52.1 µM [inhibitor, single point].
In the case of `COc1ccc(C(=O)COC(=O)c2ccccc2NS(=O)(=O)c2ccc(O)c([N+](=O)[O-])c2)cc1`, the Potency is reported as inconclusive: 52.1 µM [inhibitor, single point].
For `Cc1cc(C(C)(C)C)oc1C(=O)N1CCN(C(=O)c2oc(C(C)(C)C)cc2C)CC1`, the Potency was active: 39.8 µM.
In the case of `Cc1cc(C)cc(N(C(=O)c2ccco2)C(C(=O)NC2CCCC2)c2ccncc2)c1` (stereo not given), the Potency is reported as inconclusive: 44.7 µM [inhibitor, partial curve, poor fit].
For `Cc1cc(NC(=O)CCC(=O)N(c2ccccc2)C(C(=O)NC2CCCC2)c2ccc(F)cc2)no1` (stereo not given), the Potency was inconclusive: 52.1 µM [inhibitor, partial curve].
In the case of `CC(=O)OCCNc1cc(SC(C)C)c2nonc2c1[N+](=O)[O-]`, the Potency is reported as “inactive”.
`O=C(CCCCn1c(=O)c2ccccc2n(CC(=O)Nc2ccccc2)c1=O)NCc1ccccc1Cl` was tested, and the Potency was “inactive”.
With `CCCSc1ccc([C@@H]2[C@@H]3C(=O)N(C)C(=O)[C@@H]3[C@]3(C(=O)OC)CCCCN23)cc1OC` the Potency was inconclusive: 22.4 µM [inhibitor, partial curve].
With `CCOc1ccc(CNC(=S)N/N=C\c2ccc([N+](=O)[O-])cc2)cc1` the Potency was “inactive”.
For `CN(c1ccccc1)c1ccc(/C=C/[N+](=O)[O-])cc1`, the Potency was active: 29.3 µM.
For `O=C(CC(=O)Nc1ccccc1F)Nc1ccccc1F`, the Potency was “inactive”.
With `CCOc1cc(C2C(C#N)=C(N)Oc3n[nH]c(-c4ccccc4)c32)ccc1O` (stereo not given) the Potency was inconclusive: 32.9 µM [inhibitor, partial curve, poor fit].
With `COc1ccc(NC(=O)CN(C)S(=O)(=O)c2ccc3c(c2)c(=O)n(C)c(=O)n3C)cc1` the Potency was “inactive”.
For `COc1cc2c(cc1OC)C(c1cc3cc4c(cc3[nH]c1=O)OCO4)N(C(=O)C1CC1)CC2` (stereo not given), the Potency was “inactive”.
For `CC1(C)CC(=O)C2=C(C1)NC1=C(C(=O)c3ccccc31)C2c1cc([N+](=O)[O-])ccc1O` (stereo not given), the Potency was inconclusive: 13.1 µM [inhibitor, full curve].
`CCOC(=O)c1cc(-c2ccc(C#N)cc2)nc2c1c(C)nn2CCC#N` was tested, and the Potency was “inactive”.
`O=C(Cn1cnc2c(oc3nc4c(cc32)CCCC4)c1=O)Nc1ccccc1` was tested, and the Potency was “inactive”.
For `N#CCCN(C(=O)CSc1nc2nc(-c3cccs3)cc(C(F)(F)F)c2c(=O)[nH]1)c1ccccc1`, the Potency was inconclusive: 58.5 µM [inhibitor, single point].
`N=c1c(S(=O)(=O)c2ccccc2)cc2c(=O)n3ccccc3nc2n1CC1CCCO1` (stereo not given) was tested, and the Potency was inconclusive: 20.7 µM [inhibitor, full curve].
In the case of `O=S(=O)(Nc1cccc(S(=O)(=O)N2CCCCCC2)c1)c1ccccc1`, the Potency is reported as “inactive”.
For `O=[N+]([O-])c1cccc(S(=O)(=O)Nc2nc3ccccc3nc2Nc2cccc(S(=O)(=O)N3CCCCC3)c2)c1`, the Potency was inconclusive: 52.1 µM [inhibitor, single point].
`N#Cc1c(N)nc2c3c(sc(=N)c2c1N)NC(=O)CC3c1ccccc1Cl` (stereo not given) was tested, and the Potency was inconclusive: 26.1 µM [inhibitor, single point].
With `Cc1cccc(NC(=O)CSc2nnc(CNC(=O)c3cccc(C)c3)n2-c2ccccc2)c1` the Potency was inconclusive: 70.8 µM [inhibitor, single point].
`Cn1c2ccccc2c2cc(C(=O)NNC(=O)CCl)sc21` was tested, and the Potency was inconclusive: 44.7 µM [inhibitor, partial curve, poor fit].
With `CC(C)(C)NC(=O)CSc1nc2ccc(Nc3nc(N4CCOCC4)nc(N4CCOCC4)n3)cc2s1` the Potency was inconclusive: 52.1 µM [inhibitor, partial curve].
With `N#C/C(=C/c1ccc(N2CCCCC2)o1)C(=O)Nc1ccc2ccccc2c1` the Potency was “inactive”.
In the case of `CCOc1ccccc1NC(=O)CN1CCC(C(=O)c2ccc(F)cc2)CC1`, the Potency is reported as “inactive”.
`CCn1c(=O)n(CC)c2cc(N3CCCC3)c(NC(=O)c3cc(Cl)ccc3OC)cc21` was tested, and the Potency was inconclusive: 46.5 µM [inhibitor, single point].
With `O=S(=O)(Nc1cccc(C(F)(F)F)c1)c1ccc(NS(=O)(=O)c2ccc3c(c2)OCCO3)cc1` the Potency was inconclusive: 50.1 µM [inhibitor, single point].
In the case of `COC(=O)c1ccccc1-c1c2ccc(=N)cc-2oc2cc(N)ccc12`, the Potency is reported as inconclusive: 58.5 µM [inhibitor, single point].
`COc1ccc(-c2coc3cc(OC(C)=O)c(OC)cc3c2=O)cc1` was tested, and the Potency was inconclusive: 44.7 µM [inhibitor, partial curve, poor fit].
With `CCCn1cc2c(c1-c1ccc(C)cc1)c(=O)n(C)c(=O)n2C` the Potency was inconclusive: 52.1 µM [inhibitor, partial curve].
In the case of `CCc1cccc(C)c1Nc1c(-c2ccc(SC)cc2)nc2sccn12`, the Potency is reported as inconclusive: 28.2 µM [inhibitor, partial curve, poor fit].
With `COCc1cc(C)nc(OCC(=O)N/N=C/c2ccco2)c1C#N` the Potency was “inactive”.
`CCc1ccccc1S(=O)(=O)Cc1ccc(C(=O)NCc2ccc(Cl)cc2)o1` was tested, and the Potency was “inactive”.
`CCc1nc2ccccc2n2c(-c3ccc(C)cc3)c3c(=O)n(C)c(=O)n(C)c3c12` was tested, and the Potency was inconclusive: 50.1 µM [inhibitor, single point].
`CC(OC(=O)C1=Cc2ccccc2OC1)C(=O)NCC1CCCO1` (stereo not given) was tested, and the Potency was inconclusive: 58.5 µM [inhibitor, single point].
With `O=C(CCl)N(c1ccc(Cl)cc1)c1c[nH]c2ccccc12` the Potency was inconclusive: 58.5 µM [inhibitor, single point].
`CC(=O)N1CCc2c(sc3nc(SCC(C)C)n(-c4ccc(C)c(Cl)c4)c(=O)c23)C1` was tested, and the Potency was inconclusive: 50.1 µM [inhibitor, single point].
`Brc1nc(-c2ccccc2)nc(-c2ccccc2)c1Br` was tested, and the Potency was “inactive”.
With `CSc1ccc(C2CC(=O)Oc3c2c(=O)n(C)c2ccccc32)cc1` (stereo not given) the Potency was inconclusive: 63.1 µM [inhibitor, single point].
`O=C(CN1C(=O)COc2ccc(S(=O)(=O)N3CCCCCC3)cc21)Nc1cccc(Cl)c1` was tested, and the Potency was inconclusive: 44.7 µM [inhibitor, partial curve].
In the case of `Cc1[nH]n(-c2ccccc2)c(=O)c1C(c1cc(Cl)ccc1O)c1c(C)[nH]n(-c2ccccc2)c1=O`, the Potency is reported as inconclusive: 50.1 µM [inhibitor, single point].
In the case of `Cc1cccc(NC2=Nc3ccccc3N3C2=Nc2c(c(C)nn2-c2ccccc2)C3c2ccc(O)c(O)c2)c1` (stereo not given), the Potency is reported as inconclusive: 46.5 µM [inhibitor, partial curve, poor fit].
For `CNc1ccc(SC#N)cc1`, the Potency was inconclusive: 44.7 µM [inhibitor, single point].
With `Cc1cccc(-c2c3c(=O)n(C)c(=O)n(C)c3c3c(C)nc4ccccc4n23)c1` the Potency was inconclusive: 63.1 µM [inhibitor, single point].
In the case of `COc1ccccc1OCCCOc1ccc(/C=C2\SC(=O)NC2=O)cc1OC`, the Potency is reported as inconclusive: 50.1 µM [inhibitor, single point].
With `CCCCC[C@H](O)/C=C/[C@@H]1[C@@H](C/C=C\CCCC(=O)OC)[C@@H](O)C[C@H]1O` the Potency was inconclusive: 44.7 µM [inhibitor, partial curve, poor fit].
In the case of `COCc1ccc(-c2c(-c3ccsc3)oc(=O)c3cc(OC)c(OC)cc23)cc1`, the Potency is reported as active: 15.8 µM.
For `COc1ccc(Br)c(C(=O)Nc2cc3c(cc2N2CCOCC2)n(C)c(=O)n3C)c1`, the Potency was inconclusive: 44.7 µM [inhibitor, single point].
In the case of `COCCNc1ncnc2c1c(-c1ccccc1)cn2-c1ccc(C)c(Cl)c1`, the Potency is reported as inconclusive: 44.7 µM [inhibitor, partial curve, poor fit].
For `CCOC(=O)c1ccc(N2C(=O)c3n[nH]c(C)c3C2c2cccc(Br)c2)cc1` (stereo not given), the Potency was inconclusive: 28.2 µM [inhibitor, full curve].
With `CCN(c1ccccc1)S(=O)(=O)c1ccc(NC(=O)c2cc(=O)c3c(C)cc(C)cc3o2)cc1` the Potency was “inactive”.
